Data on five substances can be found in paper PMC4637316.

By UniProt entry, the sequences of proteins in these tests, tags left out. Where a name states a change or a piece, a line headed by the entry shows the natural chain unless it says otherwise. Chains listed by the source or under a name are the forms on record and can include a tag or linker.
UniProt P46527: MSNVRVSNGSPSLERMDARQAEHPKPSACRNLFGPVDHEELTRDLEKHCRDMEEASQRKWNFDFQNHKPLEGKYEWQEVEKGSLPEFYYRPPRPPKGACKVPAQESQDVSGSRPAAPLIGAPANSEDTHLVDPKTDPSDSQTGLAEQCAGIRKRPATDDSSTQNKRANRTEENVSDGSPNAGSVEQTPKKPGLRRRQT
Flag-p27 (VP→AA) mutant (P46527, form named): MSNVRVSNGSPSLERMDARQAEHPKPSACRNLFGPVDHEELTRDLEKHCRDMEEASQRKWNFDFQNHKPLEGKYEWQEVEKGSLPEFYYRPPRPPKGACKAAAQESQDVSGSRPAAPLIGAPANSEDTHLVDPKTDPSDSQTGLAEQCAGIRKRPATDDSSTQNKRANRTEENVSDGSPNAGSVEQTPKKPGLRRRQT
UniProt Q8NHY2: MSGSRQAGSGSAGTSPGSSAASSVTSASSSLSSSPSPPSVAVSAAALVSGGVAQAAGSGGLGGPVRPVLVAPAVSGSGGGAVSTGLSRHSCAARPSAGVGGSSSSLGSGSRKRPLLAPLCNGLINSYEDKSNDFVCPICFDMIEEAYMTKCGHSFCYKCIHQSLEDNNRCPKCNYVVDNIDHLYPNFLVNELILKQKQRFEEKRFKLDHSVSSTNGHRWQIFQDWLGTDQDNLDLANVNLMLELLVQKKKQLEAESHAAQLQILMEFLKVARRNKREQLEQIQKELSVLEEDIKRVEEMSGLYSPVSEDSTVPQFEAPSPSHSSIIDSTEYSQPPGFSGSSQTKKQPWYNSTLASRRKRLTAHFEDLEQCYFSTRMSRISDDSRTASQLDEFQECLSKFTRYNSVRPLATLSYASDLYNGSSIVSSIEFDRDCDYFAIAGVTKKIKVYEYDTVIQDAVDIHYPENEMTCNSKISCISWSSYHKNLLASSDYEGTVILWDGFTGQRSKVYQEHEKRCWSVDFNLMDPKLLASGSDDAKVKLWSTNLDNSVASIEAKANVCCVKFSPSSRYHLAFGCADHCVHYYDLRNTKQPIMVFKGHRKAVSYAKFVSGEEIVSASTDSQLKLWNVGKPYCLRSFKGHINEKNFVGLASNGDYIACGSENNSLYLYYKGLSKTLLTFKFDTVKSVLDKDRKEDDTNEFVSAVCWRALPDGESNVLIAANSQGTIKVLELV

Results are given in words; binding and its absence hold for the method and conditions named. Binding seen in cells or lysates may run through a third protein. Some results given as binding are weak or reduced against the parent protein; the word gives no strength.

Assay [1] addresses p27^Kip1 (endogenous in HeLa) (human (endogenous in HeLa)) (UniProt P46527). Description: co-IP; Flag-COP1 constructs transfected into HeLa cells treated with MG132; IP anti-p27, IB anti-Flag.
The target of assay [2] is GFP-COP1 wild-type (UniProt Q8NHY2). Description: co-IP; 293T cells transfected with the indicated plasmids and treated with MG132; IP anti-GFP, IB anti-Flag.
For assay [3], the target named is Constitutive photomorphogenic 1 (COP1) (human (endogenous in U2OS)) (UniProt Q8NHY2). Description: co-IP; endogenous proteins in U2OS lysates (asynchronous, and synchronized by thymidine-nocodazole block and release); IP anti-p27 with IB anti-COP1, IP anti-COP1 with IB anti-p27.

Regarding “Flag-COP1 C-terminal (aa 401-731) (from UniProt Q8NHY2 401-731) (domain or fragment)”, the binding result in assay [1] is recorded as “no binding”.

For “Flag-COP1 N-terminal (aa 1-334) (from UniProt Q8NHY2 1-334) (domain or fragment)”, the binding entry in assay [1] was “binds”.

Consider “Flag-p27 (VP→AA) mutant (from UniProt P46527 1-198)”, for which the binding entry in assay [2] was “no binding”. Turning to p27^Kip1 (from UniProt P46527 1-198), the binding result in assay [3] is “binds”. Consider Flag-p27 wt (from UniProt P46527 1-198), for which the binding result in assay [2] is listed as “binds”.
